Source: PubChem BioAssay AID504845 (National Center for Advancing Translational Sciences (NCATS), 2011)
Out of some 390,000 compounds screened, about 150 (0.038%) were called active. Inconclusive results, whose numbers are uncertain, are shown with a selection of clear calls. Calls follow the shape of the dose curve; as a rule, active = well fitted inhibition curve with a large enough effect; inconclusive = small, poorly fitted or top-dose-only effect; inactive = no such curve, though single readings can be large or run the other way. Potencies of inconclusive entries are doubtful fits and often do not repeat.

Each compound was assayed against Regulator of G-protein signaling 4 (Homo sapiens) (UniProt P49798) (assay: Inhibitors of Regulator of G Protein Signaling (RGS) 4: qHTS). Conditions: Transcreener GDP fluorescence polarization, RGS4-accelerated GTP hydrolysis; series mostly up to 114 µM.
Summary of the method: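 MLSMR compounds (23 nl, pin-transferred) preincubated 10 min at room temperature with a 500nM (2x) first reagent, then RGS4 at 900nM (2x) plus Transcreener GDP mix added; fluorescence polarization (620/688 nm) read before and after 90 min at 30 °C.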
Also: nearly all actives have a fitted effect of over 75% in size.
Potency is read from the fitted curve at half-maximal effect; tags tell the direction and shape of the fitted curve.

Chain of UniProt P49798 (P49798 whole entry, looked up): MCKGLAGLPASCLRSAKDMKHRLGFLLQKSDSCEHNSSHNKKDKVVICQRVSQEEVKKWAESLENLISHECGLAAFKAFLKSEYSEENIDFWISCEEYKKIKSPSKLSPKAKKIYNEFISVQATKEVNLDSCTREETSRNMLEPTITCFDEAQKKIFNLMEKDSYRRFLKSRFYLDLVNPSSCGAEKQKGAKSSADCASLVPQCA

| SMILES | Potency |
| --- | --- |
| Cc1ccc(C)c(OCC(=O)Nc2ccc(S(=O)(=O)Nc3ccccn3)cc2)c1 | inconclusive: 100 µM [inhibitor, partial curve, poor fit] |
| O=CC(O)C1OC(=O)C(O)C1O (centres undefined) | inactive |
| CCOC(=O)CSC1=C(C#N)C(=O)NC(c2ccc(OC)cc2)S1 (centres undefined) | inconclusive: 50.1 µM [inhibitor, partial curve, poor fit] |
| O=C(O)CCc1ccc(-c2ccc(Cl)cc2)o1 | inconclusive: 79.4 µM [inhibitor, partial curve, poor fit] |
| CC(=O)NC(=S)Nc1sc2c(c1C#N)CCCCC2 | inconclusive: 17.8 µM [inhibitor, full curve, poor fit] |
| NC(=O)c1cc[n+](CC2=C(C(=O)O)N3C(=O)[C@@H](NC(=O)C(c4ccccc4)S(=O)(=O)[O-])[C@H]3SC2)cc1 (some centres undefined) | inconclusive: 89.1 µM [inhibitor, partial curve, poor fit] |
| O=C(NC(=S)NCCC1=CCCCC1)c1ccccc1Br | inconclusive: 79.4 µM [inhibitor, partial curve, poor fit] |
| COc1cc(/C=C/C(=O)OCC(=O)NCCc2ccc(S(N)(=O)=O)cc2)ccc1OCC#N | inactive |
| O=C(O)c1cccc(NC(=S)NC(=O)c2ccc(-c3ccc(Cl)cc3)o2)c1 | inconclusive: 79.4 µM [inhibitor, partial curve, poor fit] |
| COc1cccc(/C=C/C(=O)OCC(=O)NCCC2=CCCCC2)c1OC | inactive |
| Cc1ccc(-n2c(=O)c3c4c(sc3n(CC(=O)Nc3cccc(Cl)c3)c2=O)CCCCC4)cc1C | inactive |
| O=C(NCc1ccc(F)cc1)N1CCc2ccccc2C1 | inactive |
| CCOC(=O)C1=C(C)N(c2ccc(OC)cc2)C(=O)/C1=C\c1ccc(O)c(OCC)c1 | inconclusive: 50.1 µM [inhibitor, partial curve, poor fit] |
| CCCCCOc1ccc(CSc2n[nH]c(C)n2)cc1 | inconclusive: 50.1 µM [inhibitor, partial curve, poor fit] |
| CCOc1ccc(C(C(=O)NC(C)(C)C)N(CCOC)C(=O)CCC(=O)Nc2ccccn2)cc1 (centres undefined) | inconclusive: 89.1 µM [inhibitor, single point] |
| CCOC(=O)C1=C(C)NC(=S)NC1c1ccc(-c2cccc(Cl)c2C)o1 (centres undefined) | inconclusive: 50.1 µM [inhibitor, partial curve, poor fit] |
| CSc1nc(=S)c2[nH]c(=S)[nH]c2[nH]1 | inconclusive: 17.8 µM [inhibitor, full curve, poor fit] |
| COc1ccc(C2=CC3=C(Br)C(=O)C(C)(OC(=O)c4ccc(Cl)nc4)C(=O)C3=CO2)cc1 (centres undefined) | inconclusive: 35.5 µM [inhibitor, partial curve, poor fit] |
| CCOC(=O)c1ccc(NCc2ccc3c(c2)OCO3)cc1 | inactive |
| CC1=C(C(=O)Nc2ccccc2)C(c2ccc[nH]2)n2ncnc2N1 (centres undefined) | inactive |
| O=C(O)C1=CCNCC1 | inconclusive: 23.8 µM [inhibitor, partial curve, poor fit] |
| Cn1c(=O)c([N+](=O)[O-])c(NCCCn2ccnc2)c2ccccc21 | inactive |

| SMILES | Potency |
| --- | --- |
| Cc1ccn2c(NC3CCCC3)c(-c3cccs3)nc2c1 | inconclusive: 39.8 µM [inhibitor, partial curve, poor fit] |
| Cc1ccc(S(=O)(=O)c2c(C)cc(C)nc2Oc2cccc(C(F)(F)F)c2)cc1 | inactive |
| CN(O)C(=S)c1ccccc1 | inconclusive: 89.1 µM [inhibitor, partial curve, poor fit] |
| CC1(c2ccccc2Cl)NC(=O)N(CC(=O)Nc2ccc3c(c2)OCO3)C1=O (centres undefined) | inactive |
| Cc1cccc(C(=O)NC(=S)Nc2cccc3nc(C)ccc23)c1 | inconclusive: 39.8 µM [inhibitor, partial curve, poor fit] |
| CCn1c(SCC(O)c2ccccc2)nnc1-c1ccccc1 (centres undefined) | inactive |
| Cc1ccc(NC(=O)Cn2c(=O)n(Cc3ccc(C(=O)NCc4ccc5c(c4)OCO5)cc3)c(=O)c3ccccc32)cc1 | inactive |
| COc1ccc(N=C2S/C(=C\c3ccc(C)o3)C(=O)N2CC(C)C)cc1 | inconclusive: 56.2 µM [inhibitor, partial curve, poor fit] |
| CCOc1ccc2[nH]cc(-c3csc(N)n3)c2c1 | inconclusive: 17.8 µM [inhibitor, full curve, poor fit] |
| Oc1cccc(C(=S)N2CCCCC2)c1 | inconclusive: 89.1 µM [inhibitor, partial curve, poor fit] |
| CCC(C)(C)NC(=O)CN(C(=O)c1snc(C(N)=O)c1N)c1ccc2c(c1)OCO2 | inconclusive: 89.1 µM [inhibitor, single point] |
| S=c1[nH]nc(C2CCCCC2)n1/N=C/C=C/c1ccccc1 | inconclusive: 100 µM [inhibitor, single point] |
| COc1ccccc1N1CCN(S(=O)(=O)CCNC(=O)c2cc(OC)c(OC)c(OC)c2)CC1 | inactive |
| O=C(CN1CCN(c2ccc(O)cc2)CC1)N1CCc2ccccc21 | inactive |
| C=C1CSc2nc(=O)c3c(C)c(C)sc3n21 | inactive |
| NC(=O)c1sc(-c2ccsc2)cc1N | inconclusive: 0.189 µM [inhibitor, partial curve, poor fit] |
| COc1ccc2ccccc2c1C1CC(=O)N2CN(C)CSC2=C1C#N (centres undefined) | inconclusive: 44.7 µM [inhibitor, partial curve, poor fit] |
| COc1ccc(-n2c(C)cc(-c3csc(N)n3)c2C)cc1 | inconclusive: 50.1 µM [inhibitor, partial curve, poor fit] |
| CCOc1cccc2cc(-c3nc4sc5c(c4c(=O)[nH]3)CCC(C)C5)c(=O)oc12 (centres undefined) | inactive |
| CC(O)C(NS(=O)(=O)c1ccc(Cl)cc1)C(=O)OCC(=O)c1ccc2c(c1)NC(=O)CO2 (centres undefined) | inactive |
| COc1cccc(/C=N/N2C(=O)CSC2=S)c1O | inconclusive: 70.8 µM [inhibitor, partial curve, poor fit] |
| COc1ccc(/C=C/C(=O)OCC(=O)NC(=O)NC(C)(C)C)cc1 | inconclusive: 89.1 µM [inhibitor, single point] |
